Assay results published in paper PMC4336329 (PLoS ONE, 2015).
The campaign covered roughly 310,000 compounds. About 2,200 (0.71%) showed an effect of 50% or more. Effects have a minus sign here. Some of the results follow.

Target: human ether-à-go-go-related gene (hERG) potassium channel (human, UniProt Q12809)
Test: primary screen, population patch clamp on CHO cells stably expressing hERG

human ether-à-go-go-related gene (hERG) potassium channel, sequence (Q12809 whole entry, looked up): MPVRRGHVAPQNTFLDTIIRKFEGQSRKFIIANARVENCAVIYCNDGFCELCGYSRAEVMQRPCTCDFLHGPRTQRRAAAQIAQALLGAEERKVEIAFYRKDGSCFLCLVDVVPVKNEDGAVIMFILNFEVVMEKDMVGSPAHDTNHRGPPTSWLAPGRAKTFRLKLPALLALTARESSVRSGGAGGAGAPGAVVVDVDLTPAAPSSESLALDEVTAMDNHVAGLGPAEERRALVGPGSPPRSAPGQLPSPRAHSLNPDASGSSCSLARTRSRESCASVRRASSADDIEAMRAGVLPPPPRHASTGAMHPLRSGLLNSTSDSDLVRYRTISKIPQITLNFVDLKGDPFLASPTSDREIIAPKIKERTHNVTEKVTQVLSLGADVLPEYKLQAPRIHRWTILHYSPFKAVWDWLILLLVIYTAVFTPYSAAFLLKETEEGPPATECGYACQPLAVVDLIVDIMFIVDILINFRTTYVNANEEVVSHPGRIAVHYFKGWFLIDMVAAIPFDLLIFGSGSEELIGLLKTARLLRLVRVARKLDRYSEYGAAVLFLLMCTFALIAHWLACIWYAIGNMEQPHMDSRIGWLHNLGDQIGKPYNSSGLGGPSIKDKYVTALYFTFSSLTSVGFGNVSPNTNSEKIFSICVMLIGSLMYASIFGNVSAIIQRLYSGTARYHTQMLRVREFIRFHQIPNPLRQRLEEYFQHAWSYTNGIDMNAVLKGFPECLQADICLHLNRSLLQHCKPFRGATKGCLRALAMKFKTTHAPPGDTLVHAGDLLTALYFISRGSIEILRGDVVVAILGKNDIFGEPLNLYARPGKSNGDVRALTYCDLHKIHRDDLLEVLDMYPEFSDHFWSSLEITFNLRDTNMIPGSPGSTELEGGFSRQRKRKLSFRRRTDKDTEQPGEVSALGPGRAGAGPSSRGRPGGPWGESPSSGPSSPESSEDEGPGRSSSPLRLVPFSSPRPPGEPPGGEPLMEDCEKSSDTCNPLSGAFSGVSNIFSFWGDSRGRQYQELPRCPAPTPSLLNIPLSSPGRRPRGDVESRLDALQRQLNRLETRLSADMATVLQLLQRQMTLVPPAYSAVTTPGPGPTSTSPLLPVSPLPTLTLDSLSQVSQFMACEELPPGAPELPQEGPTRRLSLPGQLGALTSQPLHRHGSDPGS

Compound | hERG current change (%, negative = inhibition) at 1uM
Cc1cc(C)n2nc(CC(=O)NCc3ccc(F)cc3)nc2n1 | 5.55%
CCCCNC(=O)CNC(=S)N(Cc1cc(OC)c(OC)c(OC)c1)C1CCCC1 | 2.86%
COCCNC(=O)N1[C@H]2CC[C@@H]1C(C(=O)OC)=C(c1ccc(-c3ccccc3)c(F)c1)C2 | 5.14%
COc1ccc(S(=O)(=O)N2CCCCCC2)cc1C(=O)NCCc1ccc(F)cc1 | 6.54%
Cc1ccc([N+](=O)[O-])cc1-c1ccc(/C=N\n2nnnc2N)o1 | 9.61%
O=C(NCCCn1ccnc1)c1cc(-c2ccc(Br)cc2)on1 | -6.14%
COc1ccc(CC(=O)Nc2nc(-c3ccncc3)cs2)cc1 | 0.326%
CCOC(=O)c1ccc(NC(=O)Cn2cc3c(n2)CCC(C)C3)cc1 (centres unmarked) | 3.01%
CCC1=NN2C(=N)/C(=C\c3ccc(SCc4ccco4)o3)C(=O)N=C2S1 | 18%
COC(=O)c1cc2c(cc1Cl)SC(=NCCCN1CCOCC1)NS2(=O)=O | 2.61%
O=C(Cc1c(F)cccc1Cl)Nc1ncc([N+](=O)[O-])s1 | 10.1%
Cc1ccccc1-c1noc(-c2ccccc2C(=O)NCC2CCCO2)n1 (centres unmarked) | 7.67%
N/C(Cc1ccc([N+](=O)[O-])cc1)=N\OC(=O)c1ccc2ccccc2c1 | 4.74%
COCCC(=O)N1CCC(Oc2ccc(C(=O)N3CCCCCCC3)cc2)CC1 | 12.2%
COc1ccc(C(=O)NCC(=O)Nc2cccc(S(=O)(=O)NCc3ccco3)c2)cc1OC | 10.7%
Cc1ccn2cc(CCNS(=O)(=O)c3ccc([N+](=O)[O-])cc3)nc2c1 | -18.3%
Cc1cccc(Cn2c(C)nc3c(N)c(C)c(C)cc32)c1 | 10.6%
CCOC(=O)c1c(NC(=O)COC(=O)Cn2cnc3ccccc32)sc2c1CCC(C)C2 (centres unmarked) | 5.51%
O=C(CSc1nc2ccccc2n1Cc1ccccc1)N/N=C/c1ccco1 | -29.7%

Compound | hERG current change (%, negative = inhibition) at 1uM
Fc1cccc(Cl)c1CNn1cn[nH]c1=S | -13.2%
O=C(Nc1ccc(C(=O)O)cc1)/C(=C\c1ccccc1)NC(=O)c1ccco1 | 12.1%
Cc1nn(-c2ccccn2)c(C)c1Oc1ccccc1O | 14.4%
N#Cc1cccc(S(=O)(=O)NCc2nnc3ccccn23)c1 | 21%
CCN(Cc1ccc2c(c1)OCCO2)C(=O)CN1C(=O)NC2(CCCCC2)C1=O | 6.09%
Cc1cc(C(=O)COC(=O)c2cc(Cl)c(O)c(Cl)c2)c(C)n1C | 6.18%
Cc1ccc(-c2cc(C(=O)N3CCc4ccccc4C3)no2)cc1 | 8.01%
OCC1(CCCc2ccccc2)CCN(C2CCSCC2)CC1 | -65.4%
CCc1ccc2c(CN(C)Cc3ccccc3OC)cc(=O)oc2c1.O=C(O)C(=O)O | 13.1%
O=S1(=O)N=C(N2CCCC2)c2ccccc21 | 13%
Oc1ccccc1-c1nc(NCc2ccco2)c2ccccc2n1 | 6.2%
COc1cc(C(CC(=O)Nc2ncccc2C)N2Cc3ccccc3C2=O)cc(OC)c1OC (centres unmarked) | 13.2%
COC(=O)CSc1nc(-c2ccccc2)cc(-c2ccco2)c1C#N | 7.6%
CC(=O)Nc1ccc(NC(=O)c2ccccc2C)cc1 | 18.3%
Cc1ccc(-c2csc(NC(=S)NC(=O)/C=C/c3ccco3)n2)cc1 | 23.2%
Cc1ccc(NC(=S)N2CCC(O)CC2)c(C)c1 | 14.5%
CCOC(=O)C1CN(S(=O)(=O)c2cccs2)c2ccc(CC(=O)OC)cc2O1 (centres unmarked) | -1.9%
C=CCc1ccc(OCCOCCNCCCC)c(OC)c1 | -7.78%
COc1ccc(CCNC(=O)C/C(C)=N/NC(=O)C2CCCCC2)cc1OC | 9.86%

Compound | hERG current change (%, negative = inhibition) at 1uM
COc1ccccc1-n1nnnc1SCC(=O)Nc1cc(C)on1 | 6.37%
COc1ccc(S(=O)(=O)N2CCCOC2CNC(=O)C(=O)NCCc2ccco2)cc1 (centres unmarked) | 13.5%
Cc1ccc(-c2cc(Cc3ccccn3)c(=O)[nH]n2)cc1 | 7.24%
COc1ccc(N2CSC3=C(C#N)C(c4cccs4)CC(=O)N3C2)cc1 (centres unmarked) | 6.08%
CCN(CC)c1ccc(NC(=O)C2CCCC2)cc1 | 13.2%
Cn1c(N)c(C(=O)CSc2nnc(-c3ccccc3F)n2N)c(=O)n(C)c1=O | 13.3%
O=C1CN(C(=O)c2ccccc2Br)C(c2ccc(F)cc2)c2cc(F)ccc2N1 (centres unmarked) | 11.7%
CCOc1ccc(-c2nnc3ccc(SCC(=O)Nc4nc5ccc(C)cc5s4)nn23)cc1 | -6.96%
COc1ccc(NC(=O)COC(=O)c2cc(OC)c(OC)c(OC)c2)c([N+](=O)[O-])c1 | -6.12%
O=C(Nc1nnc(C2=COCCO2)o1)c1cccc(C(F)(F)F)c1 | 12.4%
COc1ccc(NCC(=O)Nc2ccc(C#N)cc2)cc1Cl | -4.32%
CC(C)(C)c1ccc(/C=C/C(=O)Nc2nncs2)cc1 | 15.7%
COc1ccc(S(=O)(=O)N(C)CC(=O)NCc2cccnc2)cc1OC | 11%
CCC(=O)Nc1ccc(-c2cc(-c3ccccc3)nc(-c3ccc(NC(=O)CC)cc3)n2)cc1 | 16.3%
CC1CCN(C(=O)CSc2nc3ccccc3c(=O)n2Cc2ccc3c(c2)OCO3)CC1 | 1.49%
Cc1cccc(NC(=O)CSc2nnc(-c3ccncc3)n2CC2CCCO2)c1 (centres unmarked) | 7.59%
O=C(COC(=O)c1cncc(Br)c1)NC1CCCCC1 | 14.2%
COc1ccc(-n2ncc(S(=O)(=O)c3ccccc3)c2-c2ccc(Cl)cc2)cc1 | 11.4%
